The values that follow come from publication PMC6464128.

Protein sequences, listed by entry. Tags and fused reporters are not part of them.
UniProt P49736: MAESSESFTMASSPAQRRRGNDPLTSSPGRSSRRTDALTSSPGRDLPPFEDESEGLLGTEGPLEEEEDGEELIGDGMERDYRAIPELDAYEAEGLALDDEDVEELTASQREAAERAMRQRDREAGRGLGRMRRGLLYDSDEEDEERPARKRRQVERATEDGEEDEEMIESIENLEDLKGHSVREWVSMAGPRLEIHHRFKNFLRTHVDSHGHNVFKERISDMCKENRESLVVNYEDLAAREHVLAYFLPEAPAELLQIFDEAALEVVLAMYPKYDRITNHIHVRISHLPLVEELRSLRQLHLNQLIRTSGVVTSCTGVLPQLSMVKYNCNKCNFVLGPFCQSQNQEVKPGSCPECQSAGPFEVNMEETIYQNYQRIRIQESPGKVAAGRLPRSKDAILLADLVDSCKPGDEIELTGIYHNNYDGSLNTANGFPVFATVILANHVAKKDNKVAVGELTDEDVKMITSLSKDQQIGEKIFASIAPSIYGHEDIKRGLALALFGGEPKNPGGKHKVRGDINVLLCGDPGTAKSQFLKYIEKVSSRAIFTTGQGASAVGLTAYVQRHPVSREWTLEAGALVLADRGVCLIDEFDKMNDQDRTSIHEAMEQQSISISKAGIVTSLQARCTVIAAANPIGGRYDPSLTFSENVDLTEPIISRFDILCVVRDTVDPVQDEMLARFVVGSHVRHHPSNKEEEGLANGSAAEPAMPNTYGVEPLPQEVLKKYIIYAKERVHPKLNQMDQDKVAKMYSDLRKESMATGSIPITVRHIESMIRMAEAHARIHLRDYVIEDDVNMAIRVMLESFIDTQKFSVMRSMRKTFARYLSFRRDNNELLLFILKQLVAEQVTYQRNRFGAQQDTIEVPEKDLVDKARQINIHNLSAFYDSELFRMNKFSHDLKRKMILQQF

Results are given in words; binding and its absence hold for the method and conditions named. For some assays here: In cells and extracts the contact can be indirect. Some results given as binding are weak or reduced against the parent protein; the word gives no strength. Tags and fused reporters may be left off the sequences shown.

Assay [1] concerns the target T1, TEN1, yeast two-hybrid fusion (human) (UniProt Q86WV5).
T1 sequence: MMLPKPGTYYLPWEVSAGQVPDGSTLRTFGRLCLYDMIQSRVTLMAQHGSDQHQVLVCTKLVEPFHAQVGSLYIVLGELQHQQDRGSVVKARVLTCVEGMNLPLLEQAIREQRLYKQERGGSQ
The assay can be described thus: two-hybrid; Matchmaker GAL4 system; mating of S. cerevisiae Y187 (pGBKT7) and AH109 (pGADT7); diploids from DDO spotted on QDO (high stringency) or TDO (less stringent) medium, 30°C, growth recorded after 3-4 d.

The target of another assay is T2, Flag-tagged STN1 (human) (UniProt Q9H668).
T2 sequence: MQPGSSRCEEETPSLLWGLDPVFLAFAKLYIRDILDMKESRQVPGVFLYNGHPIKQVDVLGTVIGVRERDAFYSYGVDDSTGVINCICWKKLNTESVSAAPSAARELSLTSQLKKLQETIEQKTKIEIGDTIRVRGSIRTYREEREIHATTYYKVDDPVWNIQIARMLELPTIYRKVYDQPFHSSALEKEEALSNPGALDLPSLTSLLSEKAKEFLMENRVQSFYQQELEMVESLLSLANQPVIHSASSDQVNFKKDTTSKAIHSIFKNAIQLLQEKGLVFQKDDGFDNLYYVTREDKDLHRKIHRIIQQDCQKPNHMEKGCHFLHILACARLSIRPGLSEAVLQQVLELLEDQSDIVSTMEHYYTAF
The assay can be described thus: co-IP; HEK 293T transfected with HA-CTC1, Flag-STN1 and untagged TEN1, individually or in combination; nuclease (Benzonase)-treated whole cell lysates; IP with anti-Flag or anti-HA agarose overnight at 4°C; endogenous partners detected by Western blot; also after HU treatment (no significant change).

For “MCM2, yeast two-hybrid fusion (from UniProt P49736 1-904)”, the binding result in assay [1] is “no binding”.

B1: AND-1 (endogenous) (protein, UniProt O75717 1-1129)
chain: MPATRKPMRYGHTEGHTEVCFDDSGSFIVTCGSDGDVRIWEDLDDDDPKFINVGEKAYSCALKSGKLVTAVSNNTIQVHTFPEGVPDGILTRFTTNANHVVFNGDGTKIAAGSSDFLVKIVDVMDSSQQKTFRGHDAPVLSLSFDPKDIFLASASCDGSVRVWQISDQTCAISWPLLQKCNDVINAKSICRLAWQPKSGKLLAIPVEKSVKLYRRESWSHQFDLSDNFISQTLNIVTWSPCGQYLAAGSINGLIIVWNVETKDCMERVKHEKGYAICGLAWHPTCGRISYTDAEGNLGLLENVCDPSGKTSSSKVSSRVEKDYNDLFDGDDMSNAGDFLNDNAVEIPSFSKGIINDDEDDEDLMMASGRPRQRSHILEDDENSVDISMLKTGSSLLKEEEEDGQEGSIHNLPLVTSQRPFYDGPMPTPRQKPFQSGSTPLHLTHRFMVWNSIGIIRCYNDEQDNAIDVEFHDTSIHHATHLSNTLNYTIADLSHEAILLACESTDELASKLHCLHFSSWDSSKEWIIDLPQNEDIEAICLGQGWAAAATSALLLRLFTIGGVQKEVFSLAGPVVSMAGHGEQLFIVYHRGTGFDGDQCLGVQLLELGKKKKQILHGDPLPLTRKSYLAWIGFSAEGTPCYVDSEGIVRMLNRGLGNTWTPICNTREHCKGKSDHYWVVGIHENPQQLRCIPCKGSRFPPTLPRPAVAILSFKLPYCQIATEKGQMEEQFWRSVIFHNHLDYLAKNGYEYEESTKNQATKEQQELLMKMLALSCKLEREFRCVELADLMTQNAVNLAIKYASRSRKLILAQKLSELAVEKAAELTATQVEEEEEEEDFRKKLNAGYSNTATEWSQPRFRNQVEEDAEDSGEADDEEKPEIHKPGQNSFSKSTNSSDVSAKSGAVTFSSQGRVNPFKVSASSKEPAMSMNSARSTNILDNMGKSSKKSTALSRTTNNEKSPIIKPLIPKPKPKQASAASYFQKRNSQTNKTEEVKEENLKNVLSETPAICPPQNTENQRPKTGFQMWLEENRSNILSDNPDFSDEADIIKEGMIRFRVLSTEERKVWANKAKGETASEGTEAKKRKRVVDESDETENQEEKAKENLNLSKKQKPLDFSTNQKLSAFAFKQE
Consider B1, for which the binding result in the assay with Flag-tagged STN1 (human) is “binds”.
